From patent publication US5371186A, “Synthetic peptides for detoxification of bacterial endotoxins and for the prevention and treatment of septic shock” (priority 1992, dated 1994)
At least one peptide structure holds a part that was inferred or is arguable (an end, a ring closure or a residue). Bridge positions count the residues as written; N and C are the ends. Peptide text beside a SMILES is read from it.

Tests used:
[1] = system: spleen cells from unimmunized healthy SJL/J mice; assay: LPS-induced polyclonal B-cell activation, 3H-thymidine incorporation; format: cell-based; settings: LPS 50 μg/ml, LPS alone 22,737, non stimulated 2,449 cpm
Experimental: Cells were cultured in RPMI medium containing 1.0% normal mouse serum at 37° C. for 3 days. Cultures were pulsed with 1.0 μi/well of 3H-thymidine for 16 hours and harvested for counting on an LS betaplate counter. The results were as follows:
cpm measured with non stimulated cultures = 2,449.

[2] = system: Haemophilus influenzae; assay: antibiotic activity, zone of inhibition on BHI plates; format: cell-based, H. influenzas; settings: 18 hours
Experimental: (§1) The following experiments compared the antibiotic activity of Polymyxin "B" with various peptides of the invention.
(§2) The tests were performed on BHI plates with liquid cultures of the test organism to give a lawn. Each peptide was diluted in water and placed on sterile Wathmam 3M disks on the surface of the plate. The plates were dried and incubated at 37° C. The zone of inhibition was measured after 18 hours: […]

[3] = Limulus (LAL) test, inhibition of LPS-induced gelation; format: biochemical, B. Pertussis
Source text: (§3) As a consequence of this high-affinity binding to the Lipid A moiety of endotoxins, most of the synthetic peptide analogs have shown the ability to detoxify endotoxins as evidenced by in vitro as well as in vivo analysis. The in vitro test used, as measure of detoxification, the inhibition of the enzymatic cascade leading to the coagulation of the Lymulus lysate (LAL test) by endotoxin. The LAL test is recognized as the most sensitive and predictive test for the toxic and pyrogenic activity of LPS, since pyrogenicity in vivo is related to the release of the endogenous immune modulators Interleukin-1 (IL-l) and alfa-Tumor necrosis factor (α-TNF), the mediators responsible for the fatalities associated to septic shock. As an in vivo test confirming detoxification of LPS, was then used the Rabbit pyrogen test performed according to the United States Pharmacopeia XXI.
The results obtained by the Limulus (LAL) test, shown in Table V, support the data obtained by measuring the Affinity of the peptides of the invention for the Lipid A moiety of LPS in that they were substantially equivalent to Polymyxin "B" in the inhibition of LPS activity on Limulus. […] Peptide I was, in fact, the one presenting the non complete structure needed for the mimick of Polymyxin "B" as the synthetic peptide analogs II, IV, VI and VII have clearly shown in the previous Table IV. It is important to note that the LAL test is accepted by the most important institutions in the Public Health field (Word Health Organization, United States Food and Drug Administration, etc.) as a predictive test for absence of pyrogenicity in injectable material and it can be used to replace the in vivo test of pyrogenicity in rabbits.
case (LPS of B. Pertussis) to 0.4 ng/ml of LPS. The complexes were allowe
to form at 37° C. for 30 minutes before to be processed for
analysis after dilution 1/100 with saline.
**Values are representative of a minimum of three different analysis.

[4] = system: Salmonella Typhi; assay: antibiotic activity, zone of inhibition on BHI plates; format: cell-based, S. typhi; settings: 18 hours
Experimental: as §1, §2

[5] = Rabbit pyrogen test of peptide/LPS complexes; format: in vivo; settings: rabbits, complex with LPS injected, three hours observation
Source text: as §3
In order to verify "in vivo" the detoxifying activity of the peptides, we have injected five groups of three rabbits each with the complexes formed by two representative synthetic peptide analogs with LPS. The pyrogenicity test has been executed according to the United States Pharmacopeia (Vol. XXI)/The National formulary (Vol. XVI), Combined Edition, Jan. 1, 1985. As a negative control in the test, the complex formed by Polymyxin "B" and LPS was injected. As a positive control free LPS was injected. […]

[6] = survival of Balb/c mice after endotoxin challenge; format: in vivo, mice (Strain Balb/c); settings: for % survival / Mice surviving: peptides 1 mg/mouse, Polymyxin B 0.1 mg/mouse i.v., 1 mg endotoxin i.p.; for Mice surviving: 20 mice per group; for safety and efficacy of treatment: Balb/c mice, 1 mg endotoxin challenge
Experimental: Groups of 20 mice Balb/c have been treated intravenously with the peptides of the invention at the dose of 1 mg/mouse or with 0.1 mg/mouse of Polymyxin B (the highest dose of this drug tolerated in the mouse, when injected alone). Thirty minutes later, mice were challenged by intraperitoneal injection of 1 mg endotoxin from E.C strain 055-B5. Surviving mice were recorded every 24 hours during a seven days-period of observation. Negative controls received an intravenous injection of saline.
There were 20 mice per group. Mice surviving at each of the seven 24 hours observation periods are listed. The % survival appears in parenthesis. P expresses the level of statistical significance calculated by "t-Test" for each molecule compared to the treatment with saline, considering the total survival rate in each group.

[7] = system: Vibrio cholerae; assay: antibiotic activity, zone of inhibition on BHI plates; format: cell-based, V. choleras; settings: 18 hours
Experimental: as §1, §2

[8] = direct competition with Polymyxin "B" (Affinity constant, Selectivity); format: binding, B. pertussis; settings: for AFFINITY (Ka): for Lipid A of LPSbp; for SELECTIVITY (KaANA /KaPCP): ratio of Ka of peptide to Ka of Polymyxin "B" for Lipid A
Source text: To further characterize the binding activity of the synthetic peptides for Lipid A of endotoxin, experiments of direct competition with Polymyxin "B" have been set-up in order to evaluate the Affinity constant value of Polymyxin "B" for the toxic moiety of endotoxin and ultimately to calculate the Selectivity of the synthetic peptide analogs (ratio on molar basis, between the affinity constant value of a given peptide and that of Polymyxin "B" for Lipid A).

| SMILES | 3H-thymidine incorporation ([1]; 12.5 μg/ml) | 3H-thymidine incorporation ([1]; 25 μg/ml) | 3H-thymidine incorporation ([1]; 50 μg/ml) | 3H-thymidine incorporation ([1]; 100 μg/ml) | Zone (mm) of inhibition H. influenzas ([2]; 0.008 μg/ml) [mm] | Zone (mm) of inhibition H. influenzas ([2]; 0.04 μg/ml) [mm] | Zone (mm) of inhibition H. influenzas ([2]; 0.2 μg/ml) [mm] | Zone (mm) of inhibition H. influenzas ([2]; 1.0 μg/ml) [mm] | LAL TEST ([3]; LPS/Pept (w/w) 1, LPS 0.1 μg) | Zone (mm) of inhibition S. typhi ([4]; 0.008 μg/ml) [mm] | Zone (mm) of inhibition S. typhi ([4]; 0.04 μg/ml) [mm] | Zone (mm) of inhibition S. typhi ([4]; 0.2 μg/ml) [mm] | Zone (mm) of inhibition S. typhi ([4]; 1.0 μg/ml) [mm] | pyrogenicity (temperature increase) of complex with LPS [5] | % survival ([6]; 24 hs) [%] | Mice surviving ([6]; 24 hs) | % survival ([6]; 48 hs) [%] | Mice surviving ([6]; 48 hs) | % survival ([6]; 72 hs) [%] | Mice surviving ([6]; 72 hs) | other results |
| --- | --- | --- | --- | --- | --- | --- | --- | --- | --- | --- | --- | --- | --- | --- | --- | --- | --- | --- | --- | --- | --- |
| CC(C)C[C@@H]1NC(=O)[C@H](Cc2ccccc2)NC(=O)[C@H](CCCCN)NC(=O)[C@@H](NC(=O)[C@H](CCCCN)NC(=O)[C@@H](NC(=O)[C@@H](N)CCCCN)[C@@H](C)O)CSSC[C@@H](C(=O)O)NC(=O)[C@H](CCCCN)NC(=O)[C@H](CCCCN)NC1=O [Peptide II] (H-KTKCKFLKKC-OH; disulfide 4-10) | 2,350 cpm | 2,445 cpm | 2,355 cpm | 2,266 cpm | 0 | 0 | 0 | 0 | NEGATIVE | 0 | 0 | 0 | 0 | did not show either of the two waves of temperature increase | 100 | 20 | 60 | 12 | 60 | 12 | % survival ([6]; 96 hs): 60%; Mice surviving ([6]; 96 hs): 12; % survival ([6]; 120 hs): 60%; Mice surviving ([6]; 120 hs): 12; % survival ([6]; 144 hs): 60%; Mice surviving ([6]; 144 hs): 12; % survival ([6]; 168 hs): 60%; Mice surviving ([6]; 168 hs): 12; safety and efficacy of treatment [6]: show safety and efficacy in comparison to PmB; Zone (mm) of inhibition V. choleras ([7]; 0.008 μg/ml): 0 mm; Zone (mm) of inhibition V. choleras ([7]; 0.04 μg/ml): 0 mm; Zone (mm) of inhibition V. choleras ([7]; 0.2 μg/ml): 0 mm; Zone (mm) of inhibition V. choleras ([7]; 1.0 μg/ml): 0 mm; AFFINITY (Ka) [8]: 5.6e+06 L/mol; SELECTIVITY (KaANA /KaPCP) [8]: 0.49 |
| CC(C)C[C@@H]1NC(=O)[C@H](Cc2ccccc2)NC(=O)[C@H](CCCCN)NC(=O)[C@@H](N)CSSC[C@@H](C(=O)O)NC(=O)[C@H](CCCCN)NC(=O)[C@H](CCCCN)NC1=O [Peptide I] (H-CKFLKKC-OH; disulfide 1-7) | 2,385 cpm | 2,582 cpm | 2,775 cpm | 3,287 cpm | 0 | 0 | 0 | 0 | POSITIVE | 0 | 0 | 0 | 0 | did not show either of the two waves of temperature increase | 90 | 18 | 60 | 12 | 50 | 10 | LAL TEST ([3]; LPS/Pept (w/w) 10, LPS 0.1 μg): NEGATIVE; LAL TEST ([3]; LPS/Pept (w/w) 100): NEGATIVE; inhibition of the toxic activity of LPS in the LAL assay ([3]; result in words): lower activity in the LAL inhibition; % survival ([6]; 96 hs): 50%; Mice surviving ([6]; 96 hs): 10; % survival ([6]; 120 hs): 50%; Mice surviving ([6]; 120 hs): 10; % survival ([6]; 144 hs): 50%; Mice surviving ([6]; 144 hs): 10; % survival ([6]; 168 hs): 50%; Mice surviving ([6]; 168 hs): 10; safety and efficacy of treatment [6]: show safety and efficacy in comparison to PmB; Zone (mm) of inhibition V. choleras ([7]; 0.008 μg/ml): 0 mm; Zone (mm) of inhibition V. choleras ([7]; 0.04 μg/ml): 0 mm; Zone (mm) of inhibition V. choleras ([7]; 0.2 μg/ml): 0 mm; Zone (mm) of inhibition V. choleras ([7]; 1.0 μg/ml): 0 mm; AFFINITY (Ka) [8]: < 115000 L/mol; SELECTIVITY (KaANA /KaPCP) [8]: < 0.01 |
